{"source": "PubChem BioAssay AID485360", "about": "(National Center for Advancing Translational Sciences (NCATS), 2010)", "note": "The whole screen tested about 230,000 compounds, of which about 1,500 (0.65%) were called active. The inconclusive results got no clear call from the source; some entries with a clear call stand among them for comparison. The call rests on the fitted dose curve; in most records, active means well fitted inhibition curve with a large enough effect; inconclusive means small, poorly fitted or top-dose-only effect; inactive means no such curve, though single readings can be large or run the other way. A potency beside an inconclusive call is a rough fit, not a confirmed value. On the % scale 0 is the no-effect control and ±100 the full control effect; potency means the concentration at half of the fitted maximal effect; tags describe the fitted curve by direction and shape.", "data": [{"target": "Lethal(3)malignant brain tumor-like protein 1 (Homo sapiens) (UniProt Q9Y468)", "sequence (Q9Y468 whole entry, looked up)": "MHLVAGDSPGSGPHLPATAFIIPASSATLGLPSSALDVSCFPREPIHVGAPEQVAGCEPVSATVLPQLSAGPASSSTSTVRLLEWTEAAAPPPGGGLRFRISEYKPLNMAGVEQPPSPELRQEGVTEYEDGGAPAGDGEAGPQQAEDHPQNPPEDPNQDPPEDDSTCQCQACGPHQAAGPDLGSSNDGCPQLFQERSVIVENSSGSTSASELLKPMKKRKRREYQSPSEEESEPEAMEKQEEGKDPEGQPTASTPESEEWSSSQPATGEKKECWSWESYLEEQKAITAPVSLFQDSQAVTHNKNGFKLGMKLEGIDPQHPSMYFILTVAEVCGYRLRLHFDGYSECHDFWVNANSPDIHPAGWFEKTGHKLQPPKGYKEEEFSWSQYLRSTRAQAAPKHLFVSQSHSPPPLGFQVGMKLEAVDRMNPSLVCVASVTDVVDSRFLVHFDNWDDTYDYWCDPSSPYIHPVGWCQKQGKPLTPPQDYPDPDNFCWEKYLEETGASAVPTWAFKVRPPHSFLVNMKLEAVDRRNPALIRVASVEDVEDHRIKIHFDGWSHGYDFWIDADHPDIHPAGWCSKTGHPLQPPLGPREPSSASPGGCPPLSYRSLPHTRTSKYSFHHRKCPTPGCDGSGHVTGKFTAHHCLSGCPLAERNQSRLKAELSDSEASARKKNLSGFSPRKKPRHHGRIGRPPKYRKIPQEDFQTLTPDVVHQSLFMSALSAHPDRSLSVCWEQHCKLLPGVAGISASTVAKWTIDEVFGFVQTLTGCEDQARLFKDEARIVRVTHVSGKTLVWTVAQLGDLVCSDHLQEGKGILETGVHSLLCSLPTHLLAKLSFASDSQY", "assay": "qHTS Assay for the Inhibitors of L3MBTL1; further: nearly all actives have a fitted effect of over 60% in size", "conditions": "AlphaScreen L3MBTL1–H3K9me1 peptide binding; activity, negative = inhibition: at 57.1 µM (top of the series)", "excerpt": "The histone code is comprised of many post-translational modifications that occur mainly in histone tail peptides. The identity and location of these marks are read by a variety of histone binding proteins that are emerging as important regulators of cellular differentiation and development and are increasingly being implicated in numerous disease states. Small molecule probes that disrupt the interaction between histone binding proteins and chromatin would enable a systematic chemical biology study of proteins that read the histone code and could potentially reveal new targets for drug discovery. However, no such small molecules are known. This dearth of quality molecular probes can largely be attributed to the novelty of the target class and the lack of screening assays. This proposal details the development of the first high-throughput screening assay for the discovery of inhibitors of methyl-lysine binding proteins and how it can be be used to initiate a full-scale discovery effort for antagonists of histone binding proteins. Specifically, this work focuses on an AlphaScreen(tm)-based HTS assay for Malignant Brain Tumor (MBT) domain-containing proteins, which bind to the lower methylation states of lysine residues present in histone tail peptides.\nTo each well, 2 uL of L3MBTL1 protein (final 50 nM) and 1 uL biotinylated histone peptide monomethylated at Lys9 [b-AHA-H3(1-15)K9me1] (final 75 nM) was added using a nanoliter dispenser. Formation of a protein-peptide complex proceeded at room temperature for 30 min. A Kalypsys pin-tool was employed to transfer 23 nL of library compound solution in DMSO to each well. Cefsulodin, found in a pilot screen of the LOPAC library to be a weak inhibitor of L3MBTL1 binding, was used as an intraplate control with a 16-point titration in duplicate. Following a 30 min incubation of the protein-peptide complex with compounds at room temperature, a mixture of 40 ug/mL each streptavidin-coated donor and nickel chelate acceptor AlphaScreen beads (final 10 ug/mL) was added in a 1 uL dispense for a final volume of 4 uL. Plates were incubated, protected from the light for 30 min at room temperature. Microplates were then be read on an EnVision multilabel plate reader using the 1,536 plate HTS AlphaScreen aperture (excitation time 80 ms, measurement time 240 ms).", "values": [{"smiles": "O=C(O)Cn1c(CCS(=O)(=O)c2ccc(Br)cc2)nc2ccccc21", "Potency": "inconclusive: 39.8 µM [inhibitor, single point]"}, {"smiles": "CC1SC(=NC(=O)c2ccncc2)NC1=O", "note": "(stereo not given)", "Potency": "inactive"}, {"smiles": "CCOCCCNCc1cc(Cl)ccc1OCC", "Potency": "inactive"}, {"smiles": "Cc1ccc(C2=NOC(=O)/C2=C\\c2ccc(C)o2)cc1", "Potency": "inconclusive: 28.2 µM [inhibitor, single point]"}, {"smiles": "CC1CCCC(NC(=O)COC(=O)c2cccs2)C1C", "note": "(stereo not given)", "Potency": "inactive"}, {"smiles": "O=C1c2oc3ccc(F)cc3c(=O)c2C(c2cccc(O)c2)N1CCCN1CCOCC1", "note": "(stereo not given)", "Potency": "inactive"}, {"smiles": "CC(C)N(C(=O)[C@H]1C[C@H](CC(=O)NCc2ccco2)C(=O)N2CCc3c([nH]c4cc(-c5ccco5)ccc34)[C@]12C)C(C)C", "Potency": "inconclusive: 28.2 µM [inhibitor, single point]"}, {"smiles": "CC1(C)CC(Nc2ccc(Nc3ccccc3)cc2)CC(C)(C)N1", "Potency": "inconclusive: 3.16 µM [inhibitor, full curve]"}, {"smiles": "COC(=O)C1=C(O)/C(=C\\c2ccc(CNC(=O)C(=O)Nc3ccc(C)cc3)o2)N=C1C", "Potency": "active: 7.94 µM"}, {"smiles": "CCOC(=O)c1ccc2[nH]c3c(c2c1)CCCCC3=O", "Potency": "inconclusive: 39.8 µM [inhibitor, single point]"}, {"smiles": "c1ccc2c(c1)OC(CCCN1CCCCC1)c1ccccc1S2", "note": "(stereo not given)", "Potency": "inconclusive: 6.31 µM [inhibitor, single point]"}, {"smiles": "COc1ccc(C(=O)COC(=O)CCNS(=O)(=O)c2ccccc2)c(OC)c1", "Potency": "inconclusive: 25.1 µM [inhibitor, single point]"}, {"smiles": "Cc1ccc2[nH]c(C)cc(=S)c2c1", "Potency": "inconclusive: 0.316 µM [inhibitor, full curve, poor fit]"}, {"smiles": "O=C(NCc1ccco1)c1cc(-c2cccs2)nc2ccccc12", "Potency": "inactive"}, {"smiles": "CSC(=O)NC(=O)NC(=O)c1ccc([N+](=O)[O-])cc1", "Potency": "inconclusive: 0.794 µM [inhibitor, single point]"}, {"smiles": "C=CCNCC(=O)N1N=C(c2ccc3ccccc3c2)CC1c1ccc(OC)cc1", "note": "(stereo not given)", "Potency": "inconclusive: 25.1 µM [inhibitor, single point]"}, {"smiles": "CCOC(=O)c1cc2c(ccn2C)n1Cc1ccccc1Cl", "Potency": "inconclusive: 35.5 µM [inhibitor, single point]"}, {"smiles": "Cc1ccc(NC(=O)CCC(=O)c2cccs2)nc1", "Potency": "inconclusive: 35.5 µM [inhibitor, single point]"}, {"smiles": "Cc1ccc2nc(SCC(=O)c3c(N)n(C4CC4)c(=O)[nH]c3=O)[nH]c2c1", "Potency": "inactive"}, {"smiles": "Oc1ccccc1/C=N/Nc1cc(N2CCCC2)nc(N2CCCC2)n1", "Potency": "inconclusive: 39.8 µM [inhibitor, single point]"}, {"smiles": "COc1ccccc1C(CNC(=O)c1cccc(S(=O)(=O)NCc2ccccc2)c1)N(C)C", "note": "(stereo not given)", "Potency": "inactive"}, {"smiles": "O=C(N/N=C/c1ccc([N+](=O)[O-])cc1)c1cccs1", "Potency": "inconclusive: 4.47 µM [inhibitor, single point]"}, {"smiles": "C/C(=N\\Nc1nccnc1Cl)c1ccc(O)c(C)c1", "activity, negative = inhibition": "inactive: -8.73% [at 2.29 µM]"}, {"smiles": "Cc1cc(/C=N/Nc2ccc([N+](=O)[O-])cn2)c(C)n1-c1cccc(C(=O)O)c1", "Potency": "inconclusive: 25.1 µM [inhibitor, single point]"}, {"smiles": "O=C(Cn1cnc([N+](=O)[O-])n1)N/N=C/c1cc(Cl)ccc1O", "Potency": "active: 17.8 µM"}, {"smiles": "CC(C)OCCCNC(=O)c1cc(Sc2ccc(F)cc2)nc2ccccc12", "Potency": "inconclusive: 39.8 µM [inhibitor, single point]"}, {"smiles": "C=CCn1c(-c2cc3c(s2)CCC(CC)C3)n[nH]c1=S", "note": "(stereo not given)", "Potency": "inconclusive: 14.1 µM [inhibitor, partial curve]"}, {"smiles": "N#C[C@@H]1[C@@H]2C(=O)N(c3ccc4c(c3)OCCO4)C(=O)[C@@H]2C2c3ccccc3C=CN21", "note": "(stereo not given in full)", "Potency": "inconclusive: 3.98 µM [inhibitor, single point]"}, {"smiles": "COc1ccc(-c2csc(/C(C#N)=C(\\O)CSc3nccn3C)n2)cc1OC", "Potency": "inconclusive: 39.8 µM [inhibitor, single point]"}, {"smiles": "COc1ccc(S(=O)(=O)N2CCOCC2)cc1NC(=O)C1COc2ccccc2O1", "note": "(stereo not given)", "Potency": "inconclusive: 39.8 µM [inhibitor, single point]"}, {"smiles": "O=C(CCS(=O)(=O)c1ccccc1)NCCS(=O)(=O)c1ccccc1", "Potency": "inconclusive: 44.7 µM [inhibitor, partial curve, poor fit]"}, {"smiles": "Cc1ccc(NC(=O)c2cc(N3C(=O)C=CC3=O)ccc2Cl)cc1C", "Potency": "inconclusive: 22.4 µM [inhibitor, single point]"}, {"smiles": "O=C(CSc1ccc2nnc(-c3ccccc3)n2n1)NCC1CCCO1", "note": "(stereo not given)", "Potency": "inconclusive: 3.55 µM [inhibitor, single point]"}, {"smiles": "Cc1ccc([N+](=O)[O-])c(OCCN2C(=O)NC(C)(C)C2=O)c1", "Potency": "inconclusive: 0.112 µM [inhibitor, full curve, poor fit]"}, {"smiles": "O=C1CN(C(=O)COC(=O)/C=C/c2ccc(OC(F)F)cc2)c2ccccc2N1", "Potency": "inactive"}, {"smiles": "CC1CN(C2CCN(S(=O)(=O)c3ccccc3)CC2)CC(C)O1", "note": "(stereo not given)", "Potency": "inconclusive: 10 µM [inhibitor, partial curve]"}, {"smiles": "CCOc1ccc(Cl)cc1/C=N/O", "Potency": "inactive"}, {"smiles": "Cc1c(O)ccc(/C(Cc2ccc3ccccc3n2)=N\\N)c1O", "Potency": "inconclusive: 20 µM [inhibitor, partial curve]"}, {"smiles": "O=[N+]([O-])c1ccc(-[n+]2nc(-c3ccccc3)nn2-c2ccccc2)cc1", "Potency": "inconclusive: 12.6 µM [inhibitor, partial curve]"}, {"smiles": "O=C(OCC(=O)N(CCc1ccccc1)Cc1ccccc1)c1ccccc1[N+](=O)[O-]", "Potency": "inconclusive: 0.794 µM [inhibitor, single point]"}, {"smiles": "COc1cc(CNc2ccc(N3CCCC3)cc2)ccc1OCc1ccccc1F", "Potency": "inconclusive: 15.8 µM [inhibitor, partial curve]"}, {"smiles": "Cc1ccccc1-n1ncc2c([N+](=O)[O-])cc([N+](=O)[O-])cc21", "Potency": "inconclusive: 28.2 µM [inhibitor, partial curve]"}, {"smiles": "O=C(COC(=O)c1ccccc1NCCO)NNC(=O)c1cccs1", "Potency": "inactive"}, {"smiles": "CCCN(C(=O)c1cc(CC)c(C)s1)c1c(N)n(Cc2ccccc2)c(=O)[nH]c1=O", "Potency": "inactive"}, {"smiles": "CN1c2ccccc2C(=O)NC1c1ccc(Cl)cc1", "note": "(stereo not given)", "Potency": "inactive"}, {"smiles": "Cc1cccc(Nc2ccccc2C(=O)O)c1C", "Potency": "inactive"}, {"smiles": "CC(C)Nc1nc(NC(C)C)nc(N(C)C(N)=O)n1", "Potency": "inactive"}, {"smiles": "Cc1noc(C)c1C(=O)Nc1ccccn1", "Potency": "inconclusive: 5.62 µM [inhibitor, partial curve, poor fit]"}, {"smiles": "CCc1nnc(NC(=O)c2cccc(OC)c2)s1", "Potency": "inconclusive: 6.31 µM [inhibitor, single point]"}, {"smiles": "COc1ccccc1Nc1nnc(SCc2cc(=O)n3ccsc3n2)s1", "Potency": "inconclusive: 10 µM [inhibitor, partial curve]"}, {"smiles": "COc1ccc(-c2cc(C(=O)N3CCN(c4ccccc4O)CC3)c3ccccc3n2)cc1", "Potency": "inactive"}, {"smiles": "COc1cccc(NC(=O)n2nc(N)cc2-c2ccc(Cl)cc2)c1", "Potency": "inconclusive: 39.8 µM [inhibitor, single point]"}, {"smiles": "COc1ccc2nc(N=Nc3c(O)ccc4ccccc34)sc2c1", "Potency": "inconclusive: 2.51 µM [inhibitor, partial curve]"}, {"smiles": "CCOc1ccc(C2=CC(=O)C[C@H](c3ccc(OC)cc3)C2)cc1", "Potency": "inactive"}, {"smiles": "CC(=O)OCC1=C(C(=O)O)N2C(=O)[C@@H](NC(=O)Cc3cccs3)[C@H]2SC1", "activity, negative = inhibition": "inconclusive: -97.2% [inhibitor]"}, {"smiles": "O=c1cc(CCl)nc2sc3ccccc3n12", "Potency": "inconclusive: 12.6 µM [inhibitor, partial curve]"}, {"smiles": "O=C1N=C(N2CCN(c3ccccc3)CC2)S/C1=C\\c1ccco1", "Potency": "inconclusive: 3.98 µM [inhibitor, partial curve, poor fit]"}, {"smiles": "Cc1ccsc1C(=O)NNC(=O)C1CC=CCC1C(=O)O", "note": "(stereo not given)", "Potency": "inconclusive: 31.6 µM [inhibitor, single point]"}, {"smiles": "CNC(C)C#Cc1c(-c2cc(OC)c(OC)c(OC)c2)noc1C", "note": "(stereo not given)", "Potency": "inactive"}, {"smiles": "NC(=O)C1CCN(C2CC(=O)NC2=O)CC1", "note": "(stereo not given)", "Potency": "inconclusive: 0.1 µM [inhibitor, full curve, poor fit]"}, {"smiles": "CCCN1CCC(=NNc2ccc(C(=O)O)cc2)CC1", "Potency": "inactive"}, {"smiles": "Cc1ccc(CN=c2c([N+](=O)[O-])nn(-c3cccc(Cl)c3)n2O)cc1", "Potency": "inconclusive: 39.8 µM [inhibitor, single point]"}, {"smiles": "NC(=O)c1sc2nc3c(c(-c4ccco4)c2c1N)CCC3", "Potency": "inconclusive: 39.8 µM [inhibitor, single point]"}, {"smiles": "COc1cc(C(C(=O)NCc2ccccc2)N(Cc2ccco2)C(=O)c2cnccn2)cc(OC)c1OC", "note": "(stereo not given)", "Potency": "inconclusive: 0.1 µM [inhibitor, full curve, poor fit]"}, {"smiles": "COc1ccccc1C(=O)NCC(=O)OCC(=O)Nc1ccc2[nH]c(=O)[nH]c2c1", "Potency": "inconclusive: 0.794 µM [inhibitor, single point]"}, {"smiles": "O=C1N(Cc2cccc(Cl)c2)C[C@@H]2C[C@@H](c3cccn3-c3cccnc3)N3CCC[C@@]123", "Potency": "inactive"}, {"smiles": "Cc1ccc(C(=O)Oc2ccc(Cl)c3cccnc23)cc1[N+](=O)[O-]", "Potency": "inconclusive: 39.8 µM [inhibitor, single point]"}, {"smiles": "FC(F)(F)c1ccc(CSc2nccn2-c2ccccc2)cc1", "Potency": "inconclusive: 15.8 µM [inhibitor, partial curve]"}, {"smiles": "O=C(COC(=O)C1=COCCO1)Nc1ccc(Cl)cn1", "Potency": "inactive"}, {"smiles": "c1csc(-c2csc3nc(CN4CCOCC4)nc(NCc4ccc5c(c4)OCO5)c23)c1", "Potency": "inconclusive: 39.8 µM [inhibitor, single point]"}]}]}
